Measurements as given in PMC12136788.
Some of the results follow.

B1: 82335059_82335179_1720_CDS_ENSG00000106829_ENST00000265284|human|control|control (ssRNA)
RNA: GGGAGUUCUACAGUCCGACGAUCCACAGCGAUGUUGCCGUCGCUGCAGCAUGAGAAGCAGACCUUGGAAUCGGGGCUGAUGGCCAGGGCAUAGCAGGCGGGGGCCGAGGAUGUCAGCUCUGCCUUGAUGCGUGGGGUUGGAGCCAACAGAGGAUUGAGCAUCA
B2: chr10:33214929:33214930:-_ENSG00000150093_ENST00000302278|hu_hu|hu_hu_hu_mus_True|38_108 (ssRNA)
RNA: GGGAGUUCUACAGUCCGACGAUCAACAAGUUCAUUAAAAAACUCUCCUCUGUCAGUAAGACUAAGCACAUUUUUGUAGCUAAAUGGGCUGGUGCAGUUCUGUUCACUUGUACAAGGAUUUCUUAGCUUUGCUGGGGUUGUGCUCAACAGAGGAUUGAGCAUCA
B3: chr14:66974463:66974464:+_ENSMUSG00000022044_ENSMUST00000074523|mus_hu|mus_mus_mus_hu_False|38_78 (ssRNA)
RNA: GGGAGUUCUACAGUCCGACGAUCUUGUAGGACGACUUAUUCAGGGGAUCGGCCAGGAAGCAAGAGCAGAACAAGGACACCAGCGGGAGCUCCUUCAUCUUCUCCUUGUAGGCAGCAAGGGUCAUGUUUCUGGGAUCUGGUGGCCAACAGAGGAUUGAGCAUCA
B4: chr1:163117072:163117073:-_ENSG00000143248_ENST00000313961|hu_mus|FALSE|FALSE (ssRNA)
RNA: GGGAGUUCUACAGUCCGACGAUCCUGUGUUGCUACAAAGGAUGUAACUCAACUCACAGGGCAACUUUUGGAAGCCUGACCAGAUGACUACUUGAUUAGCUCCUUAUAAAAUUCAGAGCGCACAAAGCGGGGCAGAGAAUCCUUCAACAGAGGAUUGAGCAUCA
B5: 136913315_136913435_1101_CDS_ENSG00000169925_ENST00000303407|human|control|control (ssRNA)
RNA: GGGAGUUCUACAGUCCGACGAUCCUUGGAUAGCAUCUCCCUGAGGAUGCUGUCGCAGUAGCGUAGGUGCUCCGACAGCUUGCCCUUCUUGCCUGCGUGCUGGGGCACCUCGCCGUCCUCCAGGUCCUUCUUGGGAGGCUUGAUCAACAGAGGAUUGAGCAUCA
B6: 70689264_70689384_3054_3pUTR_ENSMUSG00000003923_ENSMUST00000092430|mouse|control|control (ssRNA)
RNA: GGGAGUUCUACAGUCCGACGAUCCCGAGUCCUUGAACACUCUGCAGGGUGCCUGGAAAGCUAGGAGCUAAGUAGUUACAUCUUAGAGGUCCGGGCAUCCCUGUAUCGCUGUAGUGCCUGCUGCUCCUGAGUUGCUCUGAAGCACAACAGAGGAUUGAGCAUCA
B7: chr5:132424181:132424182:+_ENSG00000170606_ENST00000304858|hu_hu|FALSE|FALSE (ssRNA)
RNA: GGGAGUUCUACAGUCCGACGAUCGGCACACUGCAAUGCACAGCCUCGAGUGACAGCUUCAUCAGCAUUUAAUGUUGUACUAAGUUCUUUACCGAAAAAUUUGCUGAUCUUCUCUUUUACCGCAGGGAUUCGUGUAGCACCACCCAACAGAGGAUUGAGCAUCA
B8: 138044936_138045304_1278_CDS_ENSMUSG00000041642_ENSMUST00000075164|mouse|control|control (ssRNA)
RNA: GGGAGUUCUACAGUCCGACGAUCAGAGUCCUGGAGCAGCCGAGUGAGCUUGGAGUCCCUGUAAGGCACGUGCACGACCUUCUUGCUCUGGUCCCCCAAGGCGCUGAUCACAUUGCCCAAGGCCAGCAGACCACAGUUGAUGGACAACAGAGGAUUGAGCAUCA
B9: 17865945_17866065_226_3pUTR_ENSMUSG00000057614_ENSMUST00000074694|mouse|control|control (ssRNA)
RNA: GGGAGUUCUACAGUCCGACGAUCCUCCACGGCCGCCUUGUCCUCAGCGCUCAAUGUGCAGCCCAUGGUGGCCGAGCGUCGCCGCGCCCUCGGCGCCGGGGCCGGCUGGCAGAGCGAGGAGAGGCUGGCCCGGAGGCGGCCCCGCAACAGAGGAUUGAGCAUCA
B10: chr19:47223328:47223329:-_ENSG00000090372_ENST00000263280|hu_mus|FALSE|FALSE (ssRNA)
RNA: GGGAGUUCUACAGUCCGACGAUCGUGGCACUCUAGGAGGGAGCCUGGCAUCUUCUUUCAUCUUGGUCAAAAUCAGAUCCCAAAGGACACCCAGCCUGGGCUGUGUCAAACUCAGGACGACAGCUAUGUCAGGAGUUGGGGUUGCAACAGAGGAUUGAGCAUCA
B11: chr1:63355414:63355415:+_ENSMUSG00000027520_ENSMUST00000029025|mus_mus|FALSE|FALSE (ssRNA)
RNA: GGGAGUUCUACAGUCCGACGAUCAACCAUCUUCUUUUUCCAAAAUUUCCUUUGAUUUUGACUUUCAAGAUCUUCCUUUUUAACUGAUUUGGGAAAUUUUUUGGCACCAUCACGAUUUACAAGAGUCUGCUGGAAAUUAUCCUUCAACAGAGGAUUGAGCAUCA
B12: 107040475_107040595_147_5pUTR_ENSMUSG00000028614_ENSMUST00000139560|mouse|control|control (ssRNA)
RNA: GGGAGUUCUACAGUCCGACGAUCCUGCCCGGUACGCUGCCUGGGCAGGGUUCUGCAAAGCCGCCAGACCAUCUCUCCGCAGCUUCGCCUGAACAGACUCAACCGGCCAGAACUUCCCCGUAGCCACAUGCCUCCAGGUGGGCUCAACAGAGGAUUGAGCAUCA
B13: chr15:59942915:59942916:-_ENSG00000140307_ENST00000396064|hu_mus|FALSE|FALSE (ssRNA)
RNA: GGGAGUUCUACAGUCCGACGAUCUAGAGAGCCCCUGAAAUUGACUCUGUUCCUGACUCUCUGAGCCAAUGCUGAAUUUAUAGCUUUAUCAAACUGAAGUAGAACUUGAAGCGCAAGCUGGGGGGUGAUCUGUUGAGACUGUAUCAACAGAGGAUUGAGCAUCA
B14: chr7:141438946:141438947:+_ENSG00000106028_ENST00000265304|hu_mus|hu_hu_hu_mus_True|1_8 (ssRNA)
RNA: GGGAGUUCUACAGUCCGACGAUCGACGAAAUACCUGUAACACAGGUCUUCGAAACAUGGCUUCUGUUUUUCUUACAACCUAAUCUUUAGGCUUUUCCUAAAGGAAAGAAAGAAAAGAGAAAAAUGAGCAGGGGAUCACUUCCGCAACAGAGGAUUGAGCAUCA

The binders below were run against T1, UNK ZnF1-3 (human, UniProt Q9C0B0 31-174) (assay: nsRBNS (natural sequence RNA bind-n-seq); RBNS binding buffer (assumed for nsRBNS): 25 mM Tris pH 7.5, 150 mM KCl, 3 mM MgCl2, 0.01% Triton X-100, 500 ug/ml BSA, 20 U/ml SUPERase-In, 4 C; UNK is unkempt and MSI1 is Musashi-1; names of the RNAs are library labels; protein concentration not given here; high values mean tight binding).
T1 sequence: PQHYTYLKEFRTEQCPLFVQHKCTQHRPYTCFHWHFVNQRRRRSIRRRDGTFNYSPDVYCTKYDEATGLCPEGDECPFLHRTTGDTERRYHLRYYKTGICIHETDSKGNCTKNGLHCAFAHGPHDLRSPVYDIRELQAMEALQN

Row | Binder | binding signal [enrichment R]
1 | B1 | 0.995
2 | B2 | 0.954
3 | B3 | 2.12
4 | B4 | 1.16
5 | B5 | 0.774
6 | B6 | 0.831
7 | B7 | 1.54
8 | B8 | 0.935
9 | B9 | 0.7
10 | B10 | 1.39
11 | B11 | 0.662
12 | B12 | 1.01
13 | B13 | 1.13
14 | B14 | 0.506
